Data: ChEMBL document CHEMBL4888484, “Replenishing the malaria drug discovery pipeline: Screening and hit evaluation of the MMV Hit Generation Library 1 (HGL1) against asexual blood stage Plasmodium falciparum ,using a nano luciferase reporter read-out” (2022)
The whole screen tested about 150,000 compounds, of which about 540 (0.36%) showed an effect of 50% or more. The list shows a part of the results.

These compounds were tested on Plasmodium falciparum (assay: Primary screen in NF54 nanoGlo assay, in single point, at 2uM, 72h; a lower Z score goes with more inhibition). Conditions: timepoint 72 hour.
Format: functional, Erythrocyte
With COc1cc2c(cc1OC)CN(C(=O)CN1CCC[C@H](O)C1)CC2 the “% Inhibition” value was -4% and the Z score was 0.6. CCn1nccc1C1NC(=O)CCC1NC(=O)C(C)OCC(C)C (stereo unspecified) was tested, and the “% Inhibition” value was 0% and the Z score was 0.02. In the case of O=C(c1ccc2nncn2c1)N1CCC(COc2ccccn2)CC1, the “% Inhibition” value is reported as 2% and the Z score is reported as -0.21. O=C(c1cccnc1)N1C[C@H]2CC[C@@H](C1)N(C/C=C/c1ccc(F)cc1)C2 was tested, and the “% Inhibition” value was 1% and the Z score was -0.14. In the case of COc1ccc(F)cc1CN1CCS(=O)(=O)C[C@H]1c1ccccc1, the “% Inhibition” value is reported as 0% and the Z score is reported as -0.02. With COC(=O)c1cccc(NS(=O)(=O)c2ccc(OC)c(C(=O)N3CCOCC3)c2)c1C the “% Inhibition” value was -2% and the Z score was 0.3. With COc1ccc(-c2cc(C(=O)Nc3ncc[nH]3)n[nH]2)cc1OC the “% Inhibition” value was 34% and the Z score was -2.42. CN(C)[C@H]1CCCN(C(=O)Nc2ccc(CC(F)(F)F)cc2)CC1 was tested, and the “% Inhibition” value was -6% and the Z score was 0.79. In the case of CC(C)c1cc(C(=O)N2CCC[C@@H]2CC(=O)c2ccccc2)n[nH]1, the “% Inhibition” value is reported as -9% and the Z score is reported as 0.92. In the case of CCc1ccc(C(=O)N(C)C[C@H]2CCCCO2)[nH]1, the “% Inhibition” value is reported as -6% and the Z score is reported as 1.1. In the case of CC(=O)Nc1ccc(CN2C[C@@H](F)[C@@H](OCc3nc4ncccc4[nH]3)C2)cc1, the “% Inhibition” value is reported as 17% and the Z score is reported as -2. Fc1cccc(Cn2ccnc2-c2cccs2)c1 was tested, and the “% Inhibition” value was -9% and the Z score was 1.24. CN(C)[C@H]1CN(Cc2ccco2)C[C@@H]1C1CC1 was tested, and the “% Inhibition” value was -14% and the Z score was 2.48. O=C(Nc1ccc(Oc2ccc3nsnc3c2)c(Cl)c1)c1cc(Cl)ccc1O was tested, and the “% Inhibition” value was 5% and the Z score was -0.45. With C[C@H](NC(=O)c1n[nH]c2ccccc12)c1ccncc1 the “% Inhibition” value was -8% and the Z score was 0.64. In the case of Cc1cc(CC(=O)N[C@@H](C(=O)O)c2ccc(F)c(C)c2)no1, the “% Inhibition” value is reported as 4% and the Z score is reported as -0.48. For C[C@@H]1OC2(CCN(Cc3noc(Cc4ccccc4)n3)CC2)NC1=O, the “% Inhibition” value was -5% and the Z score was 0.76. For Cc1ccc2oc(-c3nnc(C(=O)NCCCN4CCCC4)o3)c(C)c2c1, the “% Inhibition” value was 14% and the Z score was -1.68. For COc1cc(Cl)cc(CN2CC(O)C2)c1OC, the “% Inhibition” value was -15% and the Z score was 2.77. Cc1cc(C)n(CC2CCN(C(=O)c3c(O)cccc3O)CC2)n1 was tested, and the “% Inhibition” value was -11% and the Z score was 1.21. O=C1C[C@H](C(=O)Nc2ccc(NCc3ccccc3)c(Cl)c2)CN1 was tested, and the “% Inhibition” value was -15% and the Z score was 1.86. With Cc1ccc([C@@H]2Cn3cnc(C(=O)N4CCC(C(=O)NCC5CC5)CC4)c3CO2)cc1 the “% Inhibition” value was -16% and the Z score was 1.8. In the case of Cc1ccc(NC2CCN(C(=O)Nc3ccccc3C)CC2)cc1, the “% Inhibition” value is reported as -5% and the Z score is reported as 0.75.
